Measurements published in PubChem BioAssay AID686979 (National Center for Advancing Translational Sciences (NCATS), 2013).
The campaign covered roughly 420,000 compounds. About 50,000 (12%) were called active. The inconclusive results got no clear call from the source; some entries with a clear call stand among them for comparison. Calls follow the shape of the dose curve; as a rule, active = well fitted inhibition curve with a large enough effect; inconclusive = small, poorly fitted or top-dose-only effect; inactive = flat fitted curve, though single readings scatter. No potency is given beside an inconclusive call; the fits are too rough.
% is scaled to controls: 0 for no effect and ±100 for the full control effect; potency is read from the fitted curve at half-maximal effect; tags tell the direction and shape of the fitted curve.

Test: qHTS for Inhibitors of human tyrosyl-DNA phosphodiesterase 1 (TDP1): qHTS in cells in presence of CPT; also: nearly all actives have a fitted effect of over 55% in size
Details: chicken DT40 Tdp1-/-;hTDP1 cells + 20 nM CPT, ATP luminescence, 48 h; activity change, negative = growth inhibition: at 46.2 µM (top of the series) unless noted
How it was run: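 Chicken DT40 Tdp1-/- cells complemented with human TDP1, 400 cells/well, exposed to compounds plus 20 nM camptothecin for at least 48 h at 37 C; viability read as ATP content by CellTiter-Glo luminescence.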
In the case of `CCn1c(NC(=O)Nc2ccccc2OC)nc2ccccc21`, the “activity change, negative = growth inhibition” value is reported as inactive: -6.71%. For `O=C(Cn1nnc(-c2ccccc2)n1)NNC(=O)c1ccco1`, the “activity change, negative = growth inhibition” value was inactive: -1.39%. For `CC(C)(C)c1cc[n+](/C(C(=S)NC2CC2)=C(/[O-])c2ccc(Cl)s2)cc1`, the Potency was inconclusive [inhibitor, single point]. For `COc1cc(/C=N/N=C/c2c[nH]c(=O)c(C#N)c2Nc2ccccc2)ccc1O`, the “activity change, negative = growth inhibition” value was inactive: -10.3%. In the case of `Cc1sc(NC(=O)CSc2nnc3scc(-c4ccccc4)n23)c(C#N)c1C`, the Potency is reported as inconclusive [inhibitor, partial curve, poor fit]. In the case of `Cc1ccc(Oc2nnc(-c3cccs3)c3ccccc23)cc1`, the Potency is reported as inconclusive [inhibitor, single point]. For `Cc1ccccc1CS(=O)(=O)c1nnc([C@H](Cc2ccccc2)NC(=O)OC(C)(C)C)o1`, the Potency was active: 0.651 µM. With `Cc1ccc(NC(=O)CSc2cn[nH]n2)cc1` the “activity change, negative = growth inhibition” value was inactive: 1.44%. With `CC1(C)Oc2ccc(C#N)cc2[C@@H](N2CCCC2=O)[C@@H]1O` the Potency was “inactive”. For `CSc1ccc(CCNC(=O)c2ccc3c(c2)nc2n3CCOC2)cc1`, the Potency was inconclusive [inhibitor, single point]. In the case of `CCc1nc2c(OCCn3cccc3)cccn2c1N(C)C(=O)CC(C)C`, the “activity change, negative = growth inhibition” value is reported as inactive: -24.4%. For `Cc1ccc(NC(=S)NCCC2=CCCCC2)cc1`, the Potency was inconclusive [inhibitor, single point]. In the case of `CCc1nc2ccccc2c(C(=O)Nc2cccc(C)c2)c1C`, the Potency is reported as inconclusive [inhibitor, single point]. For `CCOC(=O)C1(CCCc2ccccc2)CCN(Cc2cn(CC)nc2C)CC1`, the Potency was inconclusive [inhibitor, single point]. In the case of `Cc1nn(-c2ccccc2)c(N2CCCCC2)c1/C=N/NC(=O)c1ccncc1`, the Potency is reported as active: 13 µM. With `O=C(NCCc1c[nH]c2ccccc12)C(=O)NCC1OCCN1S(=O)(=O)c1ccc(Cl)cc1` (stereo unspecified) the Potency was inconclusive [inhibitor, single point]. For `COc1ccccc1C/C(N)=N/OC(=O)COc1cc(C)cc(C)c1C`, the Potency was inconclusive [inhibitor, single point]. In the case of `Cc1cc(NC(=O)CN2C(=O)CSc3ccc(S(=O)(=O)N(C)C)cc32)ccc1Br`, the Potency is reported as inconclusive [inhibitor, single point]. With `CC1(C)CC(NC(=O)c2cccc([N+](=O)[O-])c2)CC(C)(C)N1` the “activity change, negative = growth inhibition” value was inactive: -1.04%. In the case of `O=C(NCCc1cn[nH]c1)C1CCC(=O)N(CCc2cccc(F)c2)C1` (stereo unspecified), the Potency is reported as inconclusive [inhibitor, single point]. In the case of `COc1ccccc1CNC(=O)c1cc2c(=O)n(Cc3cccs3)ccc2nc1C`, the Potency is reported as inconclusive [inhibitor, single point]. For `Cc1cccc(N(Cc2cc3ccccc3[nH]c2=O)S(C)(=O)=O)c1`, the “activity change, negative = growth inhibition” value was inactive: 4.21%. In the case of `COC(=O)Cn1c(=NC(=O)C2COc3ccccc3O2)sc2cc(S(N)(=O)=O)ccc21` (stereo unspecified), the Potency is reported as inconclusive [inhibitor, single point]. In the case of `COCCCNc1nc2ccccc2nc1NS(=O)(=O)c1cc(Cl)ccc1Cl`, the Potency is reported as inconclusive [inhibitor, single point]. With `COc1ccc(Cl)cc1NC(=O)CSc1cn(CC(=O)N2CCCC2)c2ccccc12` the Potency was active: 11.6 µM. For `O=C(c1c(F)cccc1F)N(C1CCCCC1)C1CCCCC1`, the Potency was inconclusive [inhibitor, single point]. For `CC(C)c1nnc(NC(=O)c2nc(S(=O)(=O)Cc3ccccc3)ncc2Cl)s1`, the Potency was active: 5.8 µM. For `Cc1ccc(NC(=O)c2ccc(F)c(S(=O)(=O)N3CCc4ccccc4C3)c2)cc1F`, the Potency was inconclusive [inhibitor, single point]. With `COc1ccc(OC)c(/C=N/NC(=O)c2c(C)nc3ccc(C)cn23)c1` the Potency was inconclusive [inhibitor, single point]. For `COc1cccc(-c2ccnc3[nH]n(-c4ccccc4)c(=O)c23)c1`, the Potency was inconclusive [inhibitor, partial curve]. In the case of `CCN(CC)S(=O)(=O)c1ccc2oc(SCC(=O)NC3CC3)nc2c1`, the “activity change, negative = growth inhibition” value is reported as inactive: -23.9%. With `CC(=O)NC(=S)Nc1ccc(S(=O)(=O)Nc2nc(C)cc(C)n2)cc1` the “activity change, negative = growth inhibition” value was inactive: 17.5%. For `CCN1CCN(c2ccc(S(=O)(=O)N3CCCCC3)cc2NC(=O)c2ccc(C)o2)CC1`, the Potency was inconclusive [inhibitor, single point]. For `COc1ccc(NC(=O)CSc2nnc3c(n2)[nH]c2ccc(S(=O)(=O)N(C)C)cc23)c(OC)c1`, the Potency was inconclusive [inhibitor, single point]. In the case of `O=C(NC(=S)Nc1ccc(CN2CCCCC2)cc1)c1cc2ccccc2o1`, the Potency is reported as active: 23.1 µM. For `COc1ccccc1CNC(=O)C(=O)NCCC1CCCCN1S(=O)(=O)c1ccccc1` (stereo unspecified), the Potency was inconclusive [inhibitor, single point].
